# Hit rate of the full screen: of about 94,000 compounds, about 4,000 (4.3%) were called active. This list was built around the results that the source calls inconclusive (neither active nor inactive); the mix of calls is not that of the screen. Calls come from the whole dose curve; as a rule, active = well fitted inhibition curve with a large enough effect; inconclusive = small, poorly fitted or top-dose-only effect; inactive = no such curve, though single readings can be large or run the other way. A potency beside an inconclusive call is a rough fit, not a confirmed value.
# Test: Cytotoxic Profiling in NIH 3T3 Cell Line of Diverse Libraries Using Quantitative High-Throughput Screening; note: nearly all actives have a fitted effect of over 55% in size
# Details: NIH 3T3 viability, CellTiter-Glo ATP luminescence, 48-72 h; series mostly up to 96.7 µM
# In short: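 Luminescent ATP readout (CellTiter-Glo, 10 min RT) after 48 or 72 hr compound exposure of NIH 3T3 cells seeded at 400 cells/well in 1536-well format; quantitative HTS.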
# Potency is the fitted concentration of half-maximal effect; tags give direction and shape of the fitted curve.
row,SMILES,Potency
1,NCCC[C@@H](N)C(=O)N1CCCC(c2ccccc2)(c2ccccc2)C1,"inconclusive: 89.1 µM [inhibitor, partial curve, poor fit]"
2,COc1ccc(-c2nc(C3CC3)nc3c2CCN(C(=O)c2ccc4c(c2)OCO4)CC3)cc1,"inconclusive: 44.7 µM [inhibitor, partial curve, poor fit]"
3,CCC1Oc2ccc(NC(=O)c3cccc(OC)c3)cc2CN(Cc2ccccc2)C1=O (centres undefined),"inconclusive: 25.1 µM [inhibitor, full curve]"
4,Cc1ccc(OCC(=O)N2CCC(N3CC4CC(C3)[C@H]3CCCC(=O)N3C4)CC2)cc1 (some centres undefined),inactive
5,CCCCOC(=O)N1CCCn2nc(C(=O)N3CCOCC3)cc2C1,inactive
6,CC(=O)N(C1CC1)C1CCOC2(CCN(C(=O)c3ccco3)CC2)C1 (centres undefined),inactive
7,O=C(CC1=CCCCC1)N1C[C@@H](COCC2CC2)[C@H](c2ccncc2)C1,"inconclusive: 6.31 µM [inhibitor, full curve, poor fit]"
8,CCOCCNC(=O)C1CCCCN1Cc1ccc(-c2cccs2)cc1 (centres undefined),active: 39.8 µM
9,COc1ccc(CNC(=O)C[C@@H]2C[C@@H](C(C)C)[C@H](CNC(C)=O)C=C2C)cc1,active: 100 µM
10,O=S(=O)(c1ccccc1)N1Cc2ccccc2CC2(CCN(Cc3cccnc3)C2)C1 (centres undefined),"inconclusive: 70.8 µM [inhibitor, single point]"
11,COc1cccc(C(=O)N2C(C(=O)NCC(C)C)COC23CCN(C(=O)c2ccccc2F)CC3)c1 (centres undefined),inactive
12,CCC1(N2CCN(S(=O)(=O)c3cccc4cccnc34)CC2)CCN(C(=O)NC)C1 (centres undefined),"inconclusive: 70.8 µM [inhibitor, single point]"
13,Fc1ccccc1CN1CCNc2cc(Nc3ccccc3)ncc2C1,active: 50.1 µM
14,O=C(c1cc(-c2ccccc2)n[nH]1)N1CCc2c(nc(-c3ccc(F)cc3)[nH]c2=O)C1,"inconclusive: 70.8 µM [inhibitor, single point]"
15,CCc1cc(=O)n(CC(=O)Nc2cc(OC)c(OC)c(OC)c2)c(N2CCOCC2)n1,"inconclusive: 50.1 µM [inhibitor, partial curve, poor fit]"
16,COCCN1CCNc2cc(Nc3ccc(N4CCOCC4)cc3)ncc2C1,"inconclusive: 89.1 µM [inhibitor, partial curve]"
17,COc1ncccc1C(=O)N1Cc2cnn(Cc3ccc(F)cc3)c2C1,inactive
18,COc1ccc(OC)c(-c2cnc3[nH]cc(CC(=O)NCc4cccnc4)c3c2)c1,"inconclusive: 39.8 µM [inhibitor, partial curve]"
19,C=CCCC(CN1CCSCC1)Oc1ccc(C#N)cn1 (centres undefined),"inconclusive: 89.1 µM [inhibitor, partial curve, poor fit]"
20,COc1ccc(-c2cn3c(n2)CO[C@@H](CNS(C)(=O)=O)C3)cc1,inactive
21,O=C(CCC1CCCC1)NC1CCN(c2cnn(Cc3ccccc3)c(=O)c2)CC1,"inconclusive: 31.6 µM [inhibitor, partial curve, poor fit]"
22,O=C(N1CCOCC1)N1CCN(c2ccc3nnc(-c4ccccc4)n3n2)CC1,inactive

row,SMILES,Potency
1,CCOC(=O)CCNC(=O)N1CCC(Oc2ncccc2C(=O)N2CCCCC2)C1 (centres undefined),inactive
2,CC(C)N1C[C@H](O)C[C@H]1c1nnc2n1CCN(C(=O)CC1CCCCC1)C2,inactive
3,COc1ccc(C2(C(=O)N[C@@H]3CN(c4ncccn4)C[C@H]3CN(C)C)CC2)cc1,inactive
4,COc1ccc(S(=O)(=O)NC[C@H]2COCc3nc4ccc(C)cc4n32)cc1,active: 89.1 µM
5,Cc1ccc(-c2nnc(C3CN(C(=O)C(C)C)CC34CCOCC4)o2)cc1 (centres undefined),"inconclusive: 8.91 µM [inhibitor, partial curve, poor fit]"
6,C[C@@H]1CN(c2cc(C3CC(O)C3)ncn2)C[C@H](C)O1 (some centres undefined),inactive
7,COc1ccc(-n2c(=O)c(C(=O)NCc3cccs3)nc3cccnc32)cc1,inactive
8,COc1ccc(NC(=O)NC[C@H]2O[C@@H]3C[C@@H](CC(=O)NC(C)C)O[C@@H]3[C@@H]2O)cc1,inactive
9,CCOc1ccc(Cl)cc1CN(C)CC1(O)CCCNC1 (centres undefined),"inconclusive: 50.1 µM [inhibitor, partial curve, poor fit]"
10,COc1ccc(CC(=O)NC2CCc3nnc(C)n3CC2)cc1 (centres undefined),inactive
11,COc1cccc(CCC2CCCNC2)c1 (centres undefined),inactive
12,CN(C)[S+](=O)([O-])c1ccc2c(c1)OCCN(Cc1cccs1)C2,"inconclusive: 56.2 µM [inhibitor, partial curve, poor fit]"
13,Cc1cn2nc(C(=O)NCCc3ccccc3)cc2c(N2CCSCC2)n1,"inconclusive: 70.8 µM [inhibitor, single point]"
14,COc1cccc(CN2CCOC3CCN(Cc4ccccc4O)CC3C2=O)c1 (centres undefined),inactive
15,O=C(Nc1ccccc1)N[C@H]1CO[C@H]2[C@@H]1OC[C@@H]2Nc1nccc(C2CCCC2)n1,"inconclusive: 56.2 µM [inhibitor, partial curve, poor fit]"
16,CC1(C)[C@H](Cc2cc(CCO)on2)C[C@@H]1N(S(C)(=O)=O)S(C)(=O)=O,inactive
17,Cc1nnc(NC2CC(c3cc(=O)[nH]c(C4CC4)n3)C2)c2ccccc12 (centres undefined),"inconclusive: 89.1 µM [inhibitor, single point]"
18,O=S(=O)(c1ccc(Cl)cc1)N1CCOC[C@H](Oc2ccc(C(F)(F)F)cc2)C1,"inconclusive: 44.7 µM [inhibitor, partial curve, poor fit]"
19,CC(C)(C)C(=O)N1CCC2(CC1)Cc1ccccc1NC2=O,inactive
20,CC[C@H]1CN(C(=O)C(C)(C)C)CC[C@H]1CC(=O)N1CCC(C(=O)OC)CC1,"inconclusive: 31.6 µM [inhibitor, partial curve, poor fit]"
21,O=C(CCCc1ccccc1)N1CCC2(CC1)CC(N(Cc1ccccc1)C1CC1)CCO2 (centres undefined),"inconclusive: 50.1 µM [inhibitor, partial curve, poor fit]"
22,CCc1noc(-c2cccn3c(CNC(=O)c4ccc5ccccc5n4)nnc23)n1,"inconclusive: 22.4 µM [inhibitor, full curve, poor fit]"

# Reference: PubChem BioAssay AID1345082 (National Center for Advancing Translational Sciences (NCATS), 2018)
